Some of the results follow. Values were computed here from the reads of four pooled replicates and scatter widely.
target: T1, Pho4 (S. cerevisiae) (UniProt P07270); assay: relative binding free energy (BET-seq); higher = weaker binding; details: reference: library average
T1 sequence: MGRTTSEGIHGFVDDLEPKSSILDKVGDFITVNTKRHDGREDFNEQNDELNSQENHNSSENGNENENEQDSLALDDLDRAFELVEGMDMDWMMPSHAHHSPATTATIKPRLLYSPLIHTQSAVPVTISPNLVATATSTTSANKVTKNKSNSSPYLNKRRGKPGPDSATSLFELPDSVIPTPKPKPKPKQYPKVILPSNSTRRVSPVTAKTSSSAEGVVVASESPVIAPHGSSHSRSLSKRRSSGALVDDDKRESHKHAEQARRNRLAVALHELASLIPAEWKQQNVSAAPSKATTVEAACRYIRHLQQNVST

Sequence | relative binding free energy [kJ/mol]
ACAGGCACGTGTGAGG | 0.46
GGATACACGTGTACTG | 1.34
CCATGCACGTGGGGTT | -0.753
GTTTGCACGTGATGTG | 0.962
TAAATCACGTGGGAAT | 0.544
TAACACACGTGGGGTT | -0.293
GTACGCACGTGGGAGT | -0.879
TTTTACACGTGGTAGG | 0.0837
GATGTCACGTGTAGTT | 0.879
TATAGCACGTGTTACG | -0.335
GTATACACGTGTTTGG | 0.502
AGGTACACGTGGGTGT | -0.0837
TAGTACACGTGGTAGA | -0.126
GGCGCCACGTGGTGGA | -0.711
AGATACACGTGGTTGT | 0.167
TTTGGCACGTGGGCTG | -0.586
CTTGTCACGTGTGTGC | 0.418
TCTGTCACGTGTGGAT | 1.09
AAAGGCACGTGGGGTG | -1.05
GGTTACACGTGGGGAA | 0.293
AATCGCACGTGCTGGG | -0.209
TATATCACGTGGTATA | -0.293
GTGTGCACGTGGCTGA | -0.46

Sequence | relative binding free energy [kJ/mol]
TCATGCACGTGTAATT | 0.586
GTGGACACGTGGGCCG | -0.837
TTCGTCACGTGATGTA | 0.753
AAGGGCACGTGGTTCT | -0.335
CGGCACACGTGTGGTA | 0.335
AGTTTCACGTGAAGAT | 0.879
TGTAACACGTGTGGGG | -0.0418
GTGGCCACGTGCGGGT | -0.628
TCATTCACGTGTGTTC | 1.13
GAGGTCACGTGCGTTT | 0.962
GTAAGCACGTGGAGGG | -0.167
TCAGGCACGTGTGCTG | -0.0418
GCTGACACGTGTTGTG | -0.46
GTAAACACGTGGGTAG | -0.126
ATAGTCACGTGAGATT | 1.3
ATGACCACGTGGGGAT | -0.502
TGTGGCACGTGTGCTC | -0.502
CGTGTCACGTGTAGCG | 0.0418
AATGGCACGTGCTTGT | -0.711
CTAGGCACGTGTGTGG | -0.586
AGGGTCACGTGTATAG | 0.544
ATGGGCACGTGGTGCA | -0.628
ATGATCACGTGAGCTT | 1.63

Sequence | relative binding free energy [kJ/mol]
GGTCTCACGTGAGGTT | 1.42
TGCGTCACGTGATATG | 0.669
GTCTTCACGTGTGTCG | 1.55
AAATGCACGTGCAGGG | -0.46
CGTAACACGTGTTTTT | -0.0837
TGGTTCACGTGGACTA | 1.13
GTTTACACGTGCGTGT | 0.251
CGGATCACGTGTATGG | 0.0418
AGGGTCACGTGATATG | 0.46
TTGAGCACGTGGTAGG | -0.418
ATTGACACGTGGAAGG | 0.251
CGGGTCACGTGCGTCG | 0.377
TTCAGCACGTGGATGT | 0.126
TGTAACACGTGCGGTA | 0.293
TGCGACACGTGCGGTT | 0.753
ATTATCACGTGGTGAG | 0.586
TGCCGCACGTGCTGGT | -0.167
GGACTCACGTGGTCGG | 1.34
GGTTGCACGTGCGTCA | 0.0418
TTCGGCACGTGGTGTA | -0.711
GATAGCACGTGGTATT | -0.879
TGTTACACGTGGTTAT | 0.502
AACGTCACGTGGGGCG | -0.0418

Sequence | relative binding free energy [kJ/mol]
AGTAGCACGTGAAATA | 1.26
TTTTTCACGTGTGAGG | 1.34
GGATGCACGTGGGAAT | -0.377
AGTGCCACGTGGGCTT | -0.837
GGGATCACGTGGTTTA | 1.3
TTGATCACGTGGGAAT | 0.586
TGAGTCACGTGTAGTT | 0.586
CGGGGCACGTGCAGGT | -0.544
GTATTCACGTGGGTAT | 1.26
TTATTCACGTGTGTGT | 0.962
AGGGACACGTGTAGGG | 0.251
AGAATCACGTGAAGTT | 1.92
TGGAACACGTGCGGAG | 0.544
TGTATCACGTGGAAGT | 0.795
GTTGCCACGTGGTCGG | -0.628
ACGTGCACGTGTAGGG | -0.167
TGAAGCACGTGACTGT | 0.126
GGGCTCACGTGCGGGT | 0.335
TACGACACGTGATGTG | 0.293
TATTTCACGTGAAGTT | 1.76
GTTGGCACGTGAGGTG | 0.293
GATTGCACGTGTGGCT | 0.167
GTTCACACGTGCGTGT | 0.251

Sequence | relative binding free energy [kJ/mol]
TGAAACACGTGGTATA | -0.209
ACAGTCACGTGTGGTG | 0
TGTGACACGTGTTTCG | 0.586
ATATGCACGTGGTATG | -0.669
TGGTTCACGTGCGGAT | 1.46
GCTGTCACGTGGTGTC | 0.418
TGTTACACGTGTTCGG | 0.251
ATAGGCACGTGCGTGG | -0.753
TATAGCACGTGGGGTA | -1.13
TGATTCACGTGTGGCC | 1.21
TTTATCACGTGGTTAC | -0.0418
TTTTGCACGTGAGGGG | 0.92
TTTGTCACGTGAAATA | 1.3
GGTTGCACGTGATGGA | 0.418
TATTTCACGTGATAGG | 1.55
AACTGCACGTGTTTGG | 0.753
TGTCTCACGTGCTTGT | 0.502
CGGGTCACGTGTTTGC | 0.167
GATCGCACGTGGTTGA | -0.251
ACTAGCACGTGCGGGG | -0.46
TTGGACACGTGGAGAT | 0.251
TGCGACACGTGGGGGT | -0.0418
AATGTCACGTGGTGCC | 0.92

Source: the BET-seq Pho4 binding data (Le et al. 2018)
